Test results published in the supplement of paper PMC11417369.
Some of the results follow.

The sequences below were run on PfAP2-HC AP2 domain (GST-tagged) (assay: gcPBM binding intensity (ln(normalized median fluorescence intensity)); higher = stronger DNA binding).
Summary of the method: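 Using an Agilent 4 × 180k array, primer-extended double-stranded 36-bp intergenic genomic probes and negative controls were exposed for 1 h to GST-fused P. falciparum DNA-binding domains expressed in E. coli. Binding was carried out in 1× PBS with 1% milk, 0.2 mg/ml BSA, 0.5% salmon testes DNA and 0.03% Triton X-100, and protein was detected with Alexa488 anti-GST antibody and a 488 nm scan. Binding intensity is the highest Masliner-normalised natural-log median intensity across replicate spots of either probe orientation.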

In order of rising “gcPBM binding intensity (ln)” value:
1. TAGTTCTTTTAATTTAGTATTATACAATATTGGAAA [CACACA_negctrl_site521]  9.32
2. TCTATCAAATTTGAAGGTACACATTTGAGATAATTA [XGTACX_site3797]  9.41
3. TACTTATTGTGATACTTATATTATTTTATGATTAAA [XGTACX_negctrl_site353]  9.48
4. ATATACATATCAATGTAATATTATATACTTTTTTAG [CACACA_negctrl_site816]  9.5
5. TTTTTTATTCCATAATATAATATGTTTTGAAATTTG [GTGCAC_negctrl_site440]  9.51
6. TTTTTTTTTTTTTTTTCACACATTGTACTTTTTTAT [CACACA_site5193]  9.54
7. TATTAATGATAAAAAAGTACATTATTATATGATATT [XGTACX_site4235]  9.55
8. CTTATAAGAATACTAGTGCACATAATTTAACGAAAA  9.57
9. AGTAGTCTGGAGAAATGTACACAGTATCTGGTAGCT [XGTACX_site4871]  9.62
10. TATATTTATTTATATACACACATAATAAAAAATATA [CACACA_site6527]  9.62
11. TAAGTCATATAAATGTGTACATAAAAAAAAAAAATG [XGTACX_site1645]  9.66
12. AAACGAGAACATAATAAATACATAAATAAATAAATA [GTGCAC_negctrl_site433]  9.72
13. AATATATTAAATATTACACACATACATTTAGTGTAA [CACACA_site5145]  9.74
14. TTAGATATTATTATATGTACATATTATATGTATTAT [XGTACX_site3836]  9.74
15. TTATTTATGAAGTATACACACAATATATATATATAT [CACACA_site1248]  9.76
16. AGCTTGTAACAGTTTACACACTAATATTTATAAATT [CACACA_site6024]  9.77
17. ATATAATTATATTCCATACACACATATATTTAAAGG [CACACA_site2958]  9.77
18. AATATGTGTATAGATAGTACACATGCTGATAATATA [XGTACX_site5941]  9.84
19. TATATATTAAACTTTGCACACATAATTTAACTACAA [CACACA_site3440]  9.84
20. AAAAAAATAAATAAATGTACATATATAAAACATTGT [XGTACX_site2136]  9.94
21. ATATTTTTTTTTTTATGTACTTATTTATAATTATTT [XGTACX_site5279]  10.1
22. AAAATTTTGGAACGTGCACACATATGTAATATATAT [CACACA_site9004]  10.3
23. TTAATCCACAGACACACACACACAAAATAAAATACA [CACACA_site244]  10.5
24. ATCATTTGCATACGCACACACACATAAAAAGAAAAA [CACACA_site355]  10.9
